PubChem BioAssay AID463173 (ICCB-Longwood Screening Facility, Harvard Medical School, 2010)
Among all 52,000 compounds or so, about 1,700 (3.3%) were called active. No stated cut-off is given here; in the data, active means survival mostly below about 52% (no sharp cut-off); inactive means mostly above about 56%. The list shows a part of the results.

The compounds below were run on Wild type (assay: S. aureus survival, RN4220 and DeltatarO strains – OD600, teichoic acid synthesis inhibitors, primary screen (AID 463173)). Conditions: S. aureus RN4220 wild type/DeltatarO growth, OD600, 18 h, stronger effect = lower value, screened at 18.75 µg/mL (by protocol).

Row | Compound | survival
1 | Cc1cccc(N2CCN(S(=O)(=O)c3c(C)nc4scc(C)n4c3=O)CC2C)c1 (stereo unspecified) | inactive: 95%
2 | Cc1ccc(CCNC(=O)CN2N=C(c3ccc(C)cc3)CCC2=O)cc1 | inactive: 88%
3 | COc1ccc(N2C(=O)CCSC23C(=O)N(Cc2ccc(F)cc2)c2ccccc23)cc1Cl (stereo unspecified) | inactive: 80%
4 | CCC(C)NC(=O)Cn1cnc2sc(C)c(S(=O)(=O)N3CCN(c4ccccc4OC)CC3)c2c1=O (stereo unspecified) | inactive: 85%
5 | Cc1c(C(=O)Nc2cccc(Cl)c2)oc2ccc(S(=O)(=O)N3CCOCC3)cc12 | inactive: 71%
6 | COc1cccc(NC(=O)N2CCC(CN3CCOCC3)CC2)c1 | inactive: 78%
7 | CC1CCN(C(=O)c2ccc(NC(=O)c3nsc4ccccc34)cc2)CC1 | inactive: 71%
8 | CCOC(=O)c1sc(NC(=O)c2nc3nc(C)cc(C(F)F)n3n2)c(C(=O)OC)c1C | inactive: 69%
9 | CCOc1cccc(C2c3c(oc4cc(C)c(C)cc4c3=O)C(=O)N2c2nc(C)c(C)s2)c1 (stereo unspecified) | inactive: 71%
10 | Cc1cccc(NC(=O)CN(c2cccc(C(F)(F)F)c2)S(C)(=O)=O)c1 | inactive: 117%
11 | CC(C)NC(=O)c1ccc2c(c1)nnn2C | inactive: 112%
12 | Cc1ccc(NC(=O)CN2C(=O)C(C)(C)c3cc(S(=O)(=O)N4CCCCC4)ccc32)c(Br)c1 | inactive: 63%
13 | Cn1nc(C(=O)Nc2ccccc2C#N)c2c1-c1ccccc1SC2 | inactive: 90%
14 | COc1cccc(-c2cc(C(=O)Nc3cccnc3Cl)no2)c1 | inactive: 95%
15 | CCOc1ccc(NC(=O)CSc2nc3ccccc3c(=O)n2CCC(=O)NC2CCCCC2)cc1 | inactive: 127%
16 | COc1ccc(NC(=O)CN(C)S(=O)(=O)c2cnc[nH]2)cc1 | inactive: 76%
17 | O=C(COC(=O)c1cc(-c2cccs2)nc2ccccc12)c1ccc(Cl)cc1 | inactive: 88%
18 | COc1cc(C(=O)NCCSc2c(C)[nH]c3ccccc23)cc(OC)c1OC | inactive: 76%
19 | CCOc1ccc(Nc2oc(/C=C/c3cc(OC)c(OC)c(OC)c3)nc2C#N)cc1 | inactive: 85%

Row | Compound | survival
20 | O=C(NC1CC(=O)N(c2ccc(Cl)cc2)C1)C1CCCCC1 (stereo unspecified) | inactive: 85%
21 | COc1cccc(NS(=O)(=O)c2cc(-c3cnc(C4CC4)o3)ccc2C)c1 | inactive: 73%
22 | COc1ccc(-c2noc(C3CC(=O)N(c4ccc5c(c4)OCCO5)C3)n2)c(OC)c1 (stereo unspecified) | inactive: 88%
23 | OCCCCNc1cccc2ccccc12 | inactive: 116%
24 | O=C(O)CSc1nc2ccccc2nc1N1CCCCC1 | inactive: 62%
25 | COc1ccc(CCNC(=O)CSc2cn(CCNC(=O)c3ccc(OC)c(OC)c3)c3ccccc23)cc1OC | inactive: 71%
26 | COC(=O)c1c(NC(=O)/C(C#N)=C/c2ccc(OC)cc2)sc2c1C(C(=O)OC)CC2 (stereo unspecified) | inactive: 71%
27 | CCc1ccccc1NC(=O)[C@H](Cc1ccccc1)N1Cc2ccccc2C1=O | inactive: 87%
28 | CCOc1ccc(NC(=O)c2oc3ccccc3c2NC(=O)C(C)Oc2ccccc2)cc1 (stereo unspecified) | inactive: 94%
29 | Cc1cccc(C)c1NC(=O)CSc1nccn1C | inactive: 66%
30 | CCOc1ccc(CNC(=O)c2cccc(Nc3nc4ccccc4n4nnnc34)c2)cc1OC | inactive: 66%
31 | Cc1ccc(C)c(CN2C(=O)c3ccccc3S(=O)(=O)c3ccc(C(=O)N4CCN(Cc5ccccc5)CC4)cc32)c1 | inactive: 80%
32 | CC(C)Cn1c(SCc2cccc(F)c2)nc2ccsc2c1=O | inactive: 91%
33 | Cc1ccc2c(=O)cc(C(=O)Nc3ccc(S(=O)(=O)N4CCCC(C)C4)cc3)oc2c1C (stereo unspecified) | inactive: 81%
34 | CC(=O)c1cc2c(cc1N/C(=N/S(=O)(=O)c1ccc(C)cc1)c1ccc(Cl)cc1)OCO2 | active: 10%
35 | O=C(CCn1c(=O)c2cccn2c2cccnc21)NCc1cccc(Br)c1 | inactive: 92%
36 | CC1Cc2cc(S(=O)(=O)CCC(=O)Nc3ccc(OC(F)(F)F)cc3)ccc2N1C(=O)C1CC1 (stereo unspecified) | inactive: 80%
37 | NC(=O)c1noc(C(=O)N(c2ccc(OC(F)(F)F)cc2)C(C(=O)NC2CCCC2)c2c[nH]c3ccccc23)c1N (stereo unspecified) | inactive: 123%
38 | COc1ccc(Cc2nc3ccc(C(=O)NCCc4ccc(Cl)cc4)cc3o2)cc1 | inactive: 71%

Row | Compound | survival
39 | CCN(C(=O)CCS(=O)(=O)c1cc(Br)cc2c1N(C(=O)C1CC1)CC2)c1cccc(C)c1 | inactive: 78%
40 | COc1ccc(-c2cn3c(n2)sc2cc(C(=O)NCc4ccccc4)ccc23)cc1 | inactive: 89%
41 | Cc1ccc(CNc2c(C)c(C)nc3nncn23)cc1 | inactive: 86%
42 | COc1ccc(OC)c(C2CC(=O)Nc3ccc4ccccc4c32)c1 (stereo unspecified) | inactive: 95%
43 | CC(NC(=O)c1c(O)nc2ccccn2c1=O)c1ccccc1 (stereo unspecified) | inactive: 61%
44 | O=C(c1ccco1)N1CCN(C(c2ccccc2)c2nnnn2Cc2ccccc2)CC1 (stereo unspecified) | inactive: 102%
45 | CCOc1ccccc1N1CC(c2nc3ccccc3n2CCCCOc2ccccc2)CC1=O (stereo unspecified) | inactive: 73%
46 | COc1ccc(C2c3cc(OC)c(OC)cc3CC(=O)N2c2cccc(C#N)c2)cc1 (stereo unspecified) | inactive: 84%
47 | COc1ccccc1C1=Nn2c(nc3sc(C(=O)Nc4ccccc4Cl)c(C)c3c2=O)SC1 | inactive: 90%
48 | Cc1ccc(C)c(C(=O)N2CCC(c3nc4c(nnn4Cc4ccccc4)c(=O)[nH]3)CC2)c1 | inactive: 13%
49 | CCOCCCn1c(SCC(=O)Nc2ccccc2OC)nc2c(oc3ccccc32)c1=O | inactive: 81%
50 | COc1cc(Nc2nc3ccc(Cl)cc3nc2-n2nc(C)cc2C)cc(OC)c1 | inactive: 93%
51 | CCOC(=O)c1cccc(NC(=O)c2cc(C)nc3c2c(C)nn3-c2ccc(C)cc2)c1 | inactive: 68%
52 | Cc1ccc(Cl)cc1NC(=O)CCn1cnc2ccccc2c1=O | inactive: 72%
53 | CCOC(=O)c1ccc(NC(=O)C2=C(C)C(=O)OC23CCN(C(C)=O)CC3)cc1 | inactive: 66%
54 | O=C(O)C(F)(F)C12OC3C4C5CC(C6C5C3C61)C42 (stereo unspecified) | inactive: 106%
55 | O=C(CN1C(=O)COc2ccc(S(=O)(=O)NC3CCCC3)cc21)NCc1ccccc1Cl | inactive: 69%
56 | O=C(O)c1c2c(nc3ccccc13)-c1ccccc1CC2 | inactive: 119%
